Measurements from the supplement of paper PMC10037445.
Over roughly 2,900 compounds, “IRF Lucia reporter activity, fold change vs agonist alone” has its median near 0.9; the highest 2% begin near 2.8. The list shows a part of the results.

Legend:
RAW-Dual [1] = test: IRF Lucia reporter activity, fold change vs agonist alone; higher = enhanced IRF activity; conditions: cytotoxicity flag (confluency mask): not cytotoxic, agonist: MPLA (TLR4) […]
Procedure, shortened: (§1)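 RAW-Dual macrophages were seeded in DMEM at 50,000 cells/well in 384-well plates, given 50 nL of library stock by pin tool, and given a PRR agonist 1 h later. Plates were held at 37 °C, 5% CO2 for 20 hours, after which supernatant was read for IRF by QuantiLuc luminescence and for NF-κB by QuantiBlue absorbance at 620 nm. Reporter activity is expressed as fold change over wells that received agonist alone. A well was called cytotoxic when IncuCyte confluency fell below 70% of agonist controls in both mask sets.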

RAW-Dual [2] = test: IRF Lucia reporter activity, fold change vs agonist alone; cytotoxicity flag (confluency mask): not cytotoxic; higher = enhanced IRF activity
Procedure, shortened: as §1

RAW-Dual [3] = test: IRF Lucia reporter activity, fold change vs agonist alone; cytotoxicity flag (confluency mask): cytotoxic (confluency <70% of control); higher = enhanced IRF activity
Procedure, shortened: as §1

[4] = library stock concentration (final ~1000-fold dilution): 10 mM
[5] = agonist: 3'3'-cGAMP (STING) 10 ug/mL
[6] = library stock concentration (final ~1000-fold dilution): 2 mM

Question: `Nc1nc(=S)c2[nH]cnc2[nH]1` was tested. Which “IRF Lucia reporter activity” value (RAW-Dual [1]; [4]) did it give?
Answer: 0.595

Question: Which results are given for `Nc1nc(=S)c2[nH]cnc2[nH]1` (library stock concentration (final ~1000-fold dilution): 10 mM)?
Answer: IRF Lucia reporter activity (RAW-Dual [2]; [5]): 0.383; IRF Lucia reporter activity (RAW-Dual [2]; agonist: LPS (TLR4) 0.1 ug/mL): 0.723

Question: How did the “IRF Lucia reporter activity” value (RAW-Dual [1]; [4]) turn out when `O=C1c2ccccc2C(=O)c2c1ccc(O)c2O` was run?
Answer: 0.936

Question: Which “IRF Lucia reporter activity” value (RAW-Dual [2]; [5]) does the source give for `O=C1c2ccccc2C(=O)c2c1ccc(O)c2O` (library stock concentration (final ~1000-fold dilution): 10 mM) here?
Answer: 0.887

Question: And the “IRF Lucia reporter activity” value (RAW-Dual [2]; agonist: LPS (TLR4) 0.1 ug/mL)?
Answer: 0.943

Question: `COC(=O)[C@]12CCC(C)(C)C[C@H]1[C@H]1C(=O)C=C3[C@@]4(C)C=C(C#N)C(=O)C(C)(C)[C@@H]4CC[C@@]3(C)[C@]1(C)CC2` (library stock concentration (final ~1000-fold dilution): 10 mM) was tested. Which “IRF Lucia reporter activity” value (RAW-Dual [3]; [5]) did it give?
Answer: 0.00682

Question: And the “IRF Lucia reporter activity” value (RAW-Dual [3]; agonist: LPS (TLR4) 0.1 ug/mL)?
Answer: 0.0098

Question: For `CCCOc1ccn2c(C(C)=O)cc(-c3ccccc3S(C)(=O)=O)c2c1` (library stock concentration (final ~1000-fold dilution): 10 mM), which “IRF Lucia reporter activity” value (RAW-Dual [2]; [5]) is on record?
Answer: 0.81

Question: What about the “IRF Lucia reporter activity” value (RAW-Dual [2]; agonist: LPS (TLR4) 0.1 ug/mL) of the same compound?
Answer: 0.654

Question: Which “IRF Lucia reporter activity” value (RAW-Dual [1]; [4]) does the source give for `CCCOc1ccn2c(C(C)=O)cc(-c3ccccc3S(C)(=O)=O)c2c1` here?
Answer: 0.859

Question: For `CC(/C=C1\SC(=S)N(CC(=O)O)C1=O)=C\c1ccccc1`, which “IRF Lucia reporter activity” value (RAW-Dual [1]; [6]) is on record?
Answer: 1.3

Question: `CC(/C=C1\SC(=S)N(CC(=O)O)C1=O)=C\c1ccccc1` (library stock concentration (final ~1000-fold dilution): 2 mM) was tested. Which “IRF Lucia reporter activity” value (RAW-Dual [2]; [5]) did it give?
Answer: 1.05

Question: What about the “IRF Lucia reporter activity” value (RAW-Dual [2]; agonist: LPS (TLR4) 0.1 ug/mL) of the same compound?
Answer: 0.924

Question: What does the source list for `c1ccc(CNc2nc(NCc3ccccc3)c3ccccc3n2)cc1` (library stock concentration (final ~1000-fold dilution): 10 mM)?
Answer: IRF Lucia reporter activity (RAW-Dual [2]; [5]): 0.0289; IRF Lucia reporter activity (RAW-Dual [2]; agonist: LPS (TLR4) 0.1 ug/mL): 0.0281

Question: Which “IRF Lucia reporter activity” value (RAW-Dual [1]; [4]) does the source give for `c1ccc(CNc2nc(NCc3ccccc3)c3ccccc3n2)cc1` here?
Answer: 0.0214

Question: Which “IRF Lucia reporter activity” value (RAW-Dual [1]; library stock concentration (final ~1000-fold dilution): 10 mM water) does the source give for `NCC1OC(OC2C(CO)OC(OC3C(O)C(N)CC(N)C3OC3OC(CO)C(O)C(O)C3N)C2O)C(N)C(O)C1O.O=S(=O)(O)O` (centres undefined) here?
Answer: 1.24

Question: For `NCC1OC(OC2C(CO)OC(OC3C(O)C(N)CC(N)C3OC3OC(CO)C(O)C(O)C3N)C2O)C(N)C(O)C1O.O=S(=O)(O)O` (centres undefined) (library stock concentration (final ~1000-fold dilution): 10 mM water), which “IRF Lucia reporter activity” value (RAW-Dual [2]; [5]) is on record?
Answer: 1.27

Question: What about the “IRF Lucia reporter activity” value (RAW-Dual [2]; agonist: LPS (TLR4) 0.1 ug/mL) of the same compound?
Answer: 1.08

Question: For `COC(=O)CCSCc1ccc(-c2onc(C)c2NC(=O)OC(C)c2ccccc2Cl)cc1` (centres undefined), which “IRF Lucia reporter activity” value (RAW-Dual [1]; [4]) is on record?
Answer: 1.04

Question: With `COC(=O)CCSCc1ccc(-c2onc(C)c2NC(=O)OC(C)c2ccccc2Cl)cc1` (centres undefined) (library stock concentration (final ~1000-fold dilution): 10 mM) as the compound, how does the “IRF Lucia reporter activity” value (RAW-Dual [2]; [5]) read?
Answer: 1.03

Question: And the “IRF Lucia reporter activity” value (RAW-Dual [2]; agonist: LPS (TLR4) 0.1 ug/mL)?
Answer: 0.918

Question: Which “IRF Lucia reporter activity” value (RAW-Dual [2]; [5]) does the source give for `C=C(CC(=O)OCCCCCCCC)C(=O)O` (library stock concentration (final ~1000-fold dilution): 10 mM) here?
Answer: 0.619

Question: And the “IRF Lucia reporter activity” value (RAW-Dual [2]; agonist: LPS (TLR4) 0.1 ug/mL)?
Answer: 1.11

Question: What does the source list for `O=c1oc2ccccc2c(O)c1Cc1c(O)c2ccccc2oc1=O` (library stock concentration (final ~1000-fold dilution): 10 mM)?
Answer: IRF Lucia reporter activity (RAW-Dual [2]; [5]): 1.04; IRF Lucia reporter activity (RAW-Dual [2]; agonist: LPS (TLR4) 0.1 ug/mL): 1.27

Question: How did the “IRF Lucia reporter activity” value (RAW-Dual [1]; [4]) turn out when `O=c1oc2ccccc2c(O)c1Cc1c(O)c2ccccc2oc1=O` was run?
Answer: 1.06

Question: For `CC(CSC(=O)c1ccccc1)C(=O)N1CC(Sc2ccccc2)CC1C(=O)O` (centres undefined), which “IRF Lucia reporter activity” value (RAW-Dual [1]; [6]) is on record?
Answer: 1.34

Question: For `CC(CSC(=O)c1ccccc1)C(=O)N1CC(Sc2ccccc2)CC1C(=O)O` (centres undefined) (library stock concentration (final ~1000-fold dilution): 2 mM), which “IRF Lucia reporter activity” value (RAW-Dual [2]; [5]) is on record?
Answer: 0.997

Question: And the “IRF Lucia reporter activity” value (RAW-Dual [2]; agonist: LPS (TLR4) 0.1 ug/mL)?
Answer: 1.01

Question: Which “IRF Lucia reporter activity” value (RAW-Dual [1]; [4]) does the source give for `CS(=O)(=O)N1CCc2c(-c3cnc(N)nc3)nc(N3CCOCC3)nc21` here?
Answer: 1.07

Question: How did the “IRF Lucia reporter activity” value (RAW-Dual [2]; [5]) turn out when `CS(=O)(=O)N1CCc2c(-c3cnc(N)nc3)nc(N3CCOCC3)nc21` (library stock concentration (final ~1000-fold dilution): 10 mM) was run?
Answer: 0.838

Question: What about the “IRF Lucia reporter activity” value (RAW-Dual [2]; agonist: LPS (TLR4) 0.1 ug/mL) of the same compound?
Answer: 0.852

Question: How did the “IRF Lucia reporter activity” value (RAW-Dual [2]; [5]) turn out when `C=C(C)C(=O)Nc1cccc(-c2ncnc3[nH]cc(C(=O)OCC)c23)c1` (library stock concentration (final ~1000-fold dilution): 10 mM) was run?
Answer: 0.831

Question: What about the “IRF Lucia reporter activity” value (RAW-Dual [2]; agonist: LPS (TLR4) 0.1 ug/mL) of the same compound?
Answer: 0.835

Question: How did the “IRF Lucia reporter activity” value (RAW-Dual [2]; [5]) turn out when `Cc1ccccc1CN1C2=NCCN2C(=O)C2=C1CCN(Cc1ccccc1)C2` (library stock concentration (final ~1000-fold dilution): 10 mM) was run?
Answer: 1.02

Question: And the “IRF Lucia reporter activity” value (RAW-Dual [2]; agonist: LPS (TLR4) 0.1 ug/mL)?
Answer: 1.17

Question: `Cc1ccccc1CN1C2=NCCN2C(=O)C2=C1CCN(Cc1ccccc1)C2` was tested. Which “IRF Lucia reporter activity” value (RAW-Dual [1]; [4]) did it give?
Answer: 1.02

Question: How did the “IRF Lucia reporter activity” value (RAW-Dual [1]; [4]) turn out when `Cc1ccc2c(c1)C(=O)C1(O)CCN(c3ccccc3)C1=N2` (centres undefined) was run?
Answer: 0.995

Question: For `Cc1ccc2c(c1)C(=O)C1(O)CCN(c3ccccc3)C1=N2` (centres undefined) (library stock concentration (final ~1000-fold dilution): 10 mM), which “IRF Lucia reporter activity” value (RAW-Dual [2]; [5]) is on record?
Answer: 0.478

Question: And the “IRF Lucia reporter activity” value (RAW-Dual [2]; agonist: LPS (TLR4) 0.1 ug/mL)?
Answer: 1.31

Question: Which results are given for `CCCCCCCCCCCCCCCC(=O)NC(CCSC)C(=O)NCC(=O)NC(Cc1ccc(O)cc1)C(=O)NC(CCC(N)=O)C(=O)NC(CCCCN)C(=O)NC(CCCCN)C(=O)NC(CC(C)C)C(=O)NC(CCCNC(=N)N)C(=O)NC(CO)C(=O)NC(CCSC)C(=O)NC(C(=O)NC(CC(=O)O)C(=O)NC(CCCCN)C(=O)NC(Cc1ccc(O)cc1)C(=O)NC(CCCNC(=N)N)C(=O)NC(CC(C)C)C(=O)O)C(C)O` (centres undefined) (library stock concentration (final ~1000-fold dilution): 10 mM)?
Answer: IRF Lucia reporter activity (RAW-Dual [3]; [5]): 0.218; IRF Lucia reporter activity (RAW-Dual [3]; agonist: LPS (TLR4) 0.1 ug/mL): 0.995
